In the RNAGym collection of RNA variant scans (doi:10.1093/nar/gkz1192):
The source gives no read counts; variants with many changes may rest on few reads.

B1: CPEB3 Ribozyme (parent)
chain: UAACAGGGGGCCACAGCAGAAGCGUUCACGUCGCAGCCCCUGUCAGAUUCUGGUGAAUCUGCGAAUUCUGCUGUAUAUCUC

Variants of: B1
Assay: self-cleavage, relative activity (ratio to wild type); higher = more cleavage; in vitro, sequencing
Outline: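 Libraries of CPEB3 self-cleaving ribozyme mutants came from rounds of error-prone PCR and carried barcodes, which DNA sequencing matched to variants. In vitro transcription used T7 RNA polymerase at 37°C for 5 hours, with a further 15 min in DNase I before EDTA stopped the reaction; the ribozymes cleaved during both steps. The RNA was reverse transcribed with template switching and sequenced on Illumina. Relative activity is the cleaved/total read fraction of a variant divided by that of the unmutated ribozyme, averaged over three batches with at least 5 reads.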

| Variant | self-cleavage |
| --- | --- |
| UAACAGGGGGCCACAGCAGAAGCGCUUACGUCGCAGCCCCUGUCAGAUUCUGGUGAAUCUGCGUAUUCCGCUGUAUAUCUC [U25C C27U A64U U69C] | 0.33 |
| UAACAGGGGGCCACAGCAGAAGCGCUCAAGUCGCAGCCCCUGUCAGAUUCAGGUGAAUCUGCGAAUUCUGCUGUAUGCCUC [U25C C29A U51A A77G U78C] | 0.12 |
| UAACAGGGGGCCACAGCAGAAGCGCUCACGUAGCAGCUCCUGUCAGAUUCUGGUGAAUCCGCGAAUUCUGCUGUAUAUCUC [U25C C32A C38U U60C] | 0.13 |
| UAACAGGGGGCCACAGCAGAAGCGCUUACGUCGCAGCCCAUGUCAGAUUCUGGUGAGUCUGCGAAUUCUGCCGUAUAUCUC [U25C C27U C40A A57G U72C] | 0.37 |
| UAACAGGGGGCCACAGCAGAAGCGCUCAUGUCGCAGCCCCUGUCAGAUGCUGGGGAAUCUGCGAAUUCUGCUGUAUAUCUC [U25C C29U U49G U54G] | 0.09 |
| UAACAGGGGGCCACAGCAGAAGCGCUCACGUCGCAGCCCCUGUCAGAUUCUGGUGAAUCUGCGAUUUCUGCUGAAUAUCUC [U25C A65U U74A] | 0.18 |
| UAACAGGGGGCCACAGCAGAAGCGCUCACGUCGCAGCCCCUGUCAGAUUCUGGUGAAUCUGCGAUUUAUGCUGUAUAUCUC [U25C A65U C68A] | 0.08 |
| UAACAGGGGGCCACAGCAGAAGCGCUCACGUCGCAGCCCCUGUCAGAUUCUGGUGAAUCUGCGACUCCUGCCGUAUAACUC [U25C A65C U67C U72C U78A] | 0.07 |
| UAACAGGGGGCCACAGCAGAAGCGCUCACGUCGCAGUCACUGUCAGAUUCUGGUGAAUCUGCGAAUUCUGCUGUAUAUCUC [U25C C37U C39A] | 0.19 |
| UAACAGGGGGCCACAGCAGAAGCGCUCACGUCGCAGACCCUGUCAGAUUCUGGAGAAUCUGCAAAUUCUGCUGUACAUCUC [U25C C37A U54A G63A U76C] | 0.09 |
| UAACAGGGGGCCACAGCAGAAGCGCUCACGUCGCAGCACCUGUCAGAUUCUGGUGAAUCUGGGAAUUCUGCUGUAUAUCUC [U25C C38A C62G] | 0.23 |
| UAACAGGGGGCCACAGCAGAAGCGCUCACGUCGUAGCCCCUAUCAGAUUCUGGUGAAUCUGCGAGUUCUGCUGUAUUUCUC [U25C C34U G42A A65G A77U] | 0.06 |
| UAACAGGGGGCCACAGCAGAAGCGCUCACGUUACAGCCCCUGUCAGAGUCUGGUGAAUCUGCGAAUUCUGCUGUAUAUCUC [U25C C32U G33A U48G] | 0.18 |
| UAACAGGGGGCCACAGCAGAAGCGCUCACGUUGCAGCCCCUGUCAGAUUCUGGUGAAUCAGCGAAUUCUGCCGUAUAUCUC [U25C C32U U60A U72C] | 0.32 |
| UAACAGGGGGCCACAGCAGAAGCGCUCACGUUGCAGCCCCUGUCGGAUUCUGGUGUAUCUGCGAAUUCCGCUGUAUAUCUC [U25C C32U A45G A56U U69C] | 0.07 |
| UAACAGGGGGCCACAGCAGAAGCGCUCACGUAGCAGCCCCUGUCUGAUUCUGGUGAAUCUGCGAAUUCUCCUGUAUACCUC [U25C C32A A45U G70C U78C] | 0.11 |
| UAACAGGGGGCCACAGCAGAAGCGCUCACGUCGCAGCCCCUGUCAGAUUCUGGUGAAUCUGCGAGUUCUGCUGCAUAUCUC [U25C A65G U74C] | 0.18 |

| Variant | self-cleavage |
| --- | --- |
| UAACAGGGGGCCACAGCAGAAGCGCUCACGUCGCAGCCCCUGUCAGAUUCUGGUGAAUCUGCGAGUUCUGCUGAAUAUCUC [U25C A65G U74A] | 0.27 |
| UAACAGGGGGCCACAGCAGAAGCGCUCACGUCGCAGACCCUGUCAGAUUCUGGUGAAUCUGCGAAUUCUGUUGUAUAUCUC [U25C C37A C71U] | 0.1 |
| UAACAGGGGGCCACAGCAGAAGCGCUCACGUCGUAGCCCCCGUCAGAUUCUGGUGAAUCUGCGGAUUCUGCUGUAAAUCUC [U25C C34U U41C A64G U76A] | 0.07 |
| UAACAGGGGGCCACAGCAGAAGCGCUCAGGUCGCAGCCACUGUCAGAUUCUGGUGAAUCUGCGAAUUCUGCUGUAUAUCUC [U25C C29G C39A] | 0.06 |
| UAACAGGGGGCCACAGCAGAAGCGCUCACGUUGCGGCCCCUGUCAGAUUCUGGUGAAUCUGCGAAUUCUGCCGUAUAUCUC [U25C C32U A35G U72C] | 0.14 |
| UAACAGGGGGCCACAGCAGAAGCGCUCACGUCGCAGCCCCUGUCAGAUUCUGGUGAAUCUGCGGAUUCGGCUGUAUAUCUC [U25C A64G U69G] | 0.57 |
| UAACAGGGGGCCACAGCAGAAGCGCUCACGUCGCAGACCCUGUCAGAUCCUGGUGAAUCUGCGAAUUCUGCUGUAUAUCUC [U25C C37A U49C] | 0.06 |
| UAACAGGGGGCCACAGCAGAAGCGCUCAUGUCGCAGCCCCCGUCAGAUUCUGGAGAAUCUGCGAAUUCUGCUGUAUAUCUC [U25C C29U U41C U54A] | 0.25 |
| UAACAGGGGGCCACAGCAGAAGCGCUCAUGACGCAGCCCCUGUCAGAUUCUGGUGAAUCUGCGAAUUCUGCCGUAUAUCUC [U25C C29U U31A U72C] | 0.06 |
| UAACAGGGGGCCACAGCAGAAGCGCUCAGGCCGCAGCCCCUGUUAGAUUCGGGUGAAUCUGCGAACUCUGCUGUAUAUCCC [U25C C29G U31C C44U U51G U66C U80C] | 0.05 |
| UAACAGGGGGCCACAGCAGAAGCGCUCAUGUCGCAGCCCUUGUCAGAUUCUGGUGAAUCUGCGAAUUCUGCUGUAUAUCUC [U25C C29U C40U] | 0.21 |
| UAACAGGGGGCCACAGCAGAAGCGCUCAAGUCGCAGCCCCUGUCGGGUUCUGGUGAAUCUGCGAAUUCUGCUGUAUACCCC [U25C C29A A45G A47G U78C U80C] | 0.12 |
| UAACAGGGGGCCACAGCAGAAGCGCUCACGUUGCAGCCCCUGUCAGAUUCUGGUGAACCUGCGAAUUCUGCUGUAUAUCUC [U25C C32U U58C] | 0.37 |
| UAACAGGGGGCCACAGCAGAAGCGCUCACGUUGCAGCCCCUGUCAGUUUCUGGUGAAUCUGCGAAUUCUGCUGUAUAACUC [U25C C32U A47U U78A] | 0.21 |
| UAACAGGGGGCCACAGCAGAAGCGCUCACGUCGCAGACCCUGUCAGAUUCUGGCGAAUCUGCGAAUUCUGCUGUAUAUCUC [U25C C37A U54C] | 0.17 |
| UAACAGGGGGCCACAGCAGAAGCGCUCAGGUCGCAGCCCCUGUCAGAUUCUGGUGAAUCUGCGGAUUCUGCUGUAUAUCUC [U25C C29G A64G] | 0.56 |
| UAACAGGGGGCCACAGCAGAAGCGCUCACGUAGCAGCCCCUGUCGGAUUCUGGUGAAUCUGCGAACUCUGCUGUAUACCUC [U25C C32A A45G U66C U78C] | 0.06 |
